# Measurements: PubChem BioAssay (NCATS)
# Where “and” joins values, the source holds several entries; their conditions need not be identical. Equal values may be shown once. This list was built around the results that the source calls inconclusive (neither active nor inactive); the mix of calls is not that of the screen. For part of these data: Potencies beside an inconclusive call are fits to weak or partial responses and may not hold up. Calls of active or inactive are those of the source. Calls come from the whole dose curve; as a rule, active = well fitted curve in the direction sought with a large enough effect; inconclusive = small, poorly fitted or top-dose-only effect, or another doubt; inactive = no such curve, though single readings can be large; an effect the other way counts as inactive or inconclusive.
# Experiments:
# [1] = qHTS of pediatric cancer cell lines to identify multiple opportunities for drug repurposing: Primary screen for A673 cells (AID 1347092); settings: A673 Ewing sarcoma viability, CellTiter-Glo ATP luminescence, 48 h; activity change, negative = cytotoxic: at 46 µM (top of the series); note: nearly all actives have a fitted effect of over 45% in size
# In short: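 A673 cells (500-1,000 cells/well) were treated 48 hours at 37 degrees C with compounds at 11-point (0.78 nM to 46 µM) or 8-point (0.59 nM to 46 µM) dilutions. Viability read by CellTiter-Glo luminescence; concentration-response curves fitted.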
# [2] = qHTS of pediatric cancer cell lines to identify multiple opportunities for drug repurposing: Primary screen for Saos-2 cells (AID 1347097); note: nearly all actives have a fitted effect of over 40% in size
# In short: (§1)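 500-1,000 cells/well; 5 h pre-incubation 37 °C/5% CO2; compound pinned; 48 h; CellTiter-Glo, 15 min RT; luminescence. MIPE 11-pt from 0.78 nM, NPC 8-pt from 0.59 nM final. Bortezomib 2.3 µM final as positive control.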
# [3] = qHTS of pediatric cancer cell lines to identify multiple opportunities for drug repurposing: Primary screen for TC32 cells (AID 1347089); note: nearly all actives have a fitted effect of over 60% in size
# In short: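 TC32 cells, 500-1,000/well in growth medium, compound-treated 48 h at 37 °C; viability from CellTiter-Glo luminescence. Primary screen: MIPE 11-point (0.78 nM–46 µM final), NPC 8-point (0.59 nM–46 µM final); confirmatory at 11-point dilutions.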
# [4] = qHTS of pediatric cancer cell lines to identify multiple opportunities for drug repurposing: Primary screen for U-2 OS cells (AID 1347096); note: nearly all actives have a fitted effect of over 50% in size
# In short: (§2)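 Cells (500-1,000/well) in growth media were settled 5 h at 37 degrees C, then given compounds for 48 h. Viability was read as CellTiter-Glo luminescence. Primary runs used MIPE at 11 points (0.78 nM-46 µM) and NPC at 8 points (0.59 nM-46 µM); follow-ups used 11 points.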
# [5] = qHTS of pediatric cancer cell lines to identify multiple opportunities for drug repurposing: Primary screen for SK-N-MC cells (AID 1347093); settings: SK-N-MC viability, CellTiter-Glo luminescence, 48 h; activity change, negative = cytotoxic: at 46 µM (top of the series)
# In short: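 Metabolically active cells were quantified by ATP-dependent luminescence (CellTiter-Glo, 15 min at room temperature) following 48 h treatment. Cells had been plated at 500-1,000 per well and settled for 5 h beforehand.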
# [6] = qHTS of pediatric cancer cell lines to identify multiple opportunities for drug repurposing: Primary screen for Rh18 cells (AID 1347102); note: nearly all actives have a fitted effect of over 65% in size
# In short: as §2
# [7] = qHTS of pediatric cancer cell lines to identify multiple opportunities for drug repurposing: Primary screen for MG 63 (6-TG R) cells (AID 1347105); settings: MG 63 (6-TG R) viability, CellTiter-Glo, 48 h; activity change, negative = cytotoxic: at 46 µM (top of the series); note: nearly all actives have a fitted effect of over 50% in size
# In short: as §1
# [8] = Quantitative High-Throughput drug screen in 47 multiple myeloma cell lines against the NCATS MIPE library collection: KMS21BM_JCRB cell viability assay (AID 1918974); settings: ATP luminescence, 48 h; viability: at 45.8 µM (top of the series)
# In short: (§3)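 CellTiter-Glo luminescence (ATP) after 48 h compound exposure, 37C/5% CO2; 500 cells/well; MIPE 4.0 approved/investigational drugs pinned in; DMSO = 100%, media only = 0% viability.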
# [9] = Quantitative High-Throughput drug screen in 47 multiple myeloma cell lines against the NCATS MIPE library collection: L363_DSMZ cell viability assay (AID 1918984); settings: L363 myeloma viability, CellTiter-Glo ATP luminescence, 48 h; series mostly up to 45.8 µM; note: nearly all actives have a fitted effect of over 40% in size
# In short: (§4)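 MIPE 4.0 approved/investigational drugs; 500 cells/well; 48 h 37 °C humidified 5% CO2; CTG luminescence readout; DMSO = 100%, media = 0% viability.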
# [10] = Quantitative High-Throughput drug screen in 47 multiple myeloma cell lines against the NCATS MIPE library collection: UTMC2_PLB cell viability assay (AID 1919868); settings: CellTiter-Glo ATP luminescence, 48 h; series mostly up to 45.8 µM; note: nearly all actives have a fitted effect of over 55% in size
# In short: as §4
# MCC-13 = experiment: qHTS assay to identify novel small-molecules to repurpose for Merkel cell carcinoma treatment (AID 1296009); settings: MCC and control cell lines, CellTiter-Glo viability, 72 h; series mostly up to 46 µM; note: nearly all actives have a fitted effect of over 60% in size
# In short: (§5)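 qHTS format: cells treated with library compounds in DMSO across 8 (NPC) or 11 (MIPE) concentrations. Readout after 72 hr at 37 degree celsius was CellTiter-Glo luminescence.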
# MKL-1 = experiment: as above; settings: MCC and control cell lines, CellTiter-Glo viability, 72 h; series mostly up to 46 µM
# In short: as §5
# [11] = qHTS of pediatric cancer cell lines to identify multiple opportunities for drug repurposing: Primary screen for RD cells (AID 1347104); settings: RD rhabdomyosarcoma viability, CellTiter-Glo luminescence, 48 h; activity change, negative = cytotoxic: at 46 µM (top of the series); note: nearly all actives have a fitted effect of over 55% in size
# In short: as §1
# [12] = Quantitative High-Throughput drug screen in 47 multiple myeloma cell lines against the NCATS MIPE library collection: KHM11_PLB cell viability assay (AID 1918962); settings: KHM11 myeloma cell viability, CellTiter-Glo ATP luminescence, 48 h; series mostly up to 45.8 µM; note: nearly all actives have a fitted effect of over 35% in size
# In short: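 Viability readout: CellTiter-Glo luminescence following 5 min room-temperature incubation with reagent. Prior exposure: 48 h, 37C, humidified 5% CO2, 500 cells per well.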
# [13] = Quantitative High-Throughput drug screen in 47 multiple myeloma cell lines against the NCATS MIPE library collection: JIM1_ECACC cell viability assay (AID 1918964)
# In short: as §3
# Potency is the fitted concentration of half-maximal effect; tags give direction and shape of the fitted curve.
compound,measurement,setting,value
CCCCCCCCCCCCSCCOCCO,Potency,[1],inactive
same,Potency,[2],"inconclusive: 5.96 µM [cytotoxic, single point]"
CCCCCCCCOc1ccc(C(=O)c2ccccc2)c(O)c1,Potency,[3],inactive
CCOC(=O)CN1CCCC1=O,Potency,[1],inactive
same,Potency,[4],inactive
same,Potency,[2],"inconclusive: 11.9 µM [cytotoxic, partial curve]"
CCCCCCCCCCCCCCCCCCN(C)C,Potency,[1],inactive
same,Potency,[4],inactive
Cn1cc(C2=C(c3c4n(c5ccccc35)CCC(CN)C4)C(=O)NC2=O)c2ccccc21 (stereo not given),Potency,[3],"inconclusive: 14.7 µM [cytotoxic, partial curve]"
same,Potency,[5],"inconclusive: 37.2 µM [cytotoxic, single point]"
same,Potency,[4],"inconclusive: 23.5 µM [cytotoxic, single point]"
same,Potency,[6],"inconclusive: 37.2 µM [cytotoxic, single point]"
same,Potency,[7],"inconclusive: 37.2 µM [cytotoxic, single point]"
same,Potency,[8],active: 7.43 µM
same,Potency,[9],active: 7.43 µM
same,Potency,[10],"inconclusive: 3.32 µM [cytotoxic, full curve, poor fit]"
same,Potency,MCC-13,"inconclusive: 26.4 µM [inhibitor, single point]"
same,Potency,MKL-1,active: 20.9 µM
COc1ccc2cc3[n+](cc2c1OC)CCc1cc2c(cc1-3)OCO2,Potency,[3],"inconclusive: 14.9 µM [cytotoxic, partial curve] and inconclusive: 18.6 µM [cytotoxic, single point]"
same,Potency,[1],active: 2.11 µM and active: 2.35 µM
same,Potency,[2],"inconclusive: 18.8 µM [cytotoxic, partial curve] and inconclusive: 16.6 µM [cytotoxic, partial curve]"
same,Potency,[6],"inconclusive: 18.8 µM [cytotoxic, partial curve] and inconclusive: 16.6 µM [cytotoxic, partial curve, poor fit]"
same,Potency,[11],"inconclusive: 5.31 µM [cytotoxic, partial curve]"
same,Potency,[7],"inconclusive: 18.7 µM [cytotoxic, partial curve]"
same,Potency,[12],active: 8.33 µM
same,Potency,[13],active: 16.6 µM
same,Potency,[8],active: 2.64 µM
same,Potency,[9],active: 6.62 µM
same,Potency,[10],active: 3.32 µM
same,Potency,MKL-1,active: 1.88 µM and active: 2.96 µM
